According to PubChem BioAssay (Tox21):
The shares of active, inactive and inconclusive entries below differ from those in the screen. No potency is given beside an inconclusive call; the fits are too rough. Active and inactive are the calls of the source. Calls follow the shape of the dose curve; as a rule, active = well fitted cell-killing curve with a large enough effect in the repeat runs; inconclusive = weak or mixed curves, or effect the other way; inactive = no such curve, though single readings can be large or run the other way.
% is scaled to controls: 0 for no effect and ±100 for the full control effect; potency is read from the fitted curve at half-maximal effect; tags tell the direction and shape of the fitted curve.

Test: qHTS assay for identifying genotoxic compounds that show differential cytotoxicity against isogenic chicken DT40 cell lines with known DNA damage response pathways - Rev3 mutant cell line (AID 743014); also: nearly all actives have a fitted effect of over 55% in size
Conditions: chicken DT40 Rev3-/- viability, CellTiter-Glo, 40 h; activity, negative = cytotoxicity: at 68.4 µM (top of the series)
In the case of Brc1cc2ccccc2c2ccccc12, the Potency is reported as inconclusive [cytotoxic].
For CCCCCCCCC(CCCCCC)C(=O)O (centres undefined), the Potency was inconclusive [cytotoxic, single point].
With CC(=O)OCC(=O)NCCCOc1cccc(CN2CCCCC2)c1 the Potency was inconclusive [rising, partial curve, poor fit].
With CCCCCC(CO)CCC (centres undefined) the activity, negative = cytotoxicity was inconclusive: -30.9% [cytotoxic].
In the case of Cc1cccc(C)c1OCC(C)N (centres undefined), the Potency is reported as inconclusive [cytotoxic, partial curve].
With CC(C)=CCC/C(C)=C/CC/C(C)=C/CCC(=O)OC/C=C(\C)CCC=C(C)C the Potency was “inactive”.
For COc1cc(C)nc(-n2nc(C)cc2OC)n1, the Potency was inconclusive [cytotoxic, single point].
For NCCS(=O)(=O)O, the Potency was inconclusive [cytotoxic, single point].
With O=c1c(O)c(-c2ccc(O)cc2O)oc2cc(O)cc(O)c12 the Potency was inconclusive [cytotoxic, single point].
In the case of Cc1cccc(N(C)C(=S)Oc2ccc3c(c2)CCC3)c1, the Potency is reported as inconclusive [cytotoxic, single point].
In the case of Oc1ccc2c(c1)Cc1ccccc1-2, the Potency is reported as inconclusive [cytotoxic, single point].
In the case of O=c1cc(-c2ccccc2)oc2ccc3ccccc3c12, the Potency is reported as active: 15.4 µM.
In the case of ClC/C=C\CCl, the Potency is reported as “inactive”.
With CCC1(CO)COCOC1 the Potency was inconclusive [cytotoxic, single point].
